PubChem BioAssay AID1963576 (National Center for Advancing Translational Sciences (NCATS), 2024)
Out of some 46,000 compounds screened, about 60 (0.1%) were called active. Not shown: some 3% with an inconclusive outcome. Calls come from the whole dose curve; as a rule, active = well fitted inhibition curve with a large enough effect; inconclusive = small, poorly fitted or top-dose-only effect; inactive = no such curve, though single readings can be large or run the other way. This is one part of the list.

Assay: Primary qHTS assay for Inhibitors of ovarian cancer metastasis using an organotypic tumor microenvironment (TME) model.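 For activity change, negative = inhibition: plate controls were DMSO wells for no effect and tomatine positive control wells for full effect.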 Note: nearly all actives have a fitted effect of over 65% in size.
Conditions: SKOV3ip1-GFP adhesion/invasion on 3D omental model, fluorescence; series mostly up to 45.8 µM; activity change, negative = inhibition: at the top concentration
Summary of the method: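 Primary human omental fibroblast/mesothelial 3D culture pre-formed 48 h. SKOV3ip1-GFP cells added with compounds (0.36-46 umol/L), incubated 2 h RT/16 h 37 C, fixed; GFP cells quantified at 488/509 nm.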

Activity change, negative = inhibition, inactive:
COc1ccc(Cl)cc1NC(=O)Cn1ncc2c3ccccc3n(Cc3ccccc3)c2c1=O -5.85%
Cc1ccc(C(=O)c2oc3ccccc3c2NC(=O)c2cc(-c3ccc(Cl)cc3)on2)cc1 -1.07%
CCN(CC)S(=O)(=O)c1ccc2c(c1)nc(CN(C)C(=O)Nc1ccc(F)cc1)n2C 18%
Fc1ccc(Nc2nc(SCc3cccc(Cl)c3)nc3ccccc23)cc1 -2.89%
COc1ccc(NC(=O)c2nnn(CC(=O)Nc3c(C)cc(C)cc3C)c2N)cc1OC 5.21%
Cc1ccc(C)c(CN2C(=O)c3ccccc3S(=O)(=O)c3ccc(C(=O)Nc4cc(F)ccc4F)cc32)c1 -12.5%
COc1ccc(CNC(=O)CSc2n[nH]c(-c3ccc(F)cc3)n2)cc1 9.47%
O=C(Nc1nc2n(n1)C(c1ccccc1)C=C(c1ccccc1)N2)c1ccccc1 (centres undefined) 5.03%
COc1cc(Cl)c(C)cc1NC(=O)CCc1c(C)nc2c3cccnc3nn2c1C -7.69%
CCOc1ccc(-c2cc(NC(=O)c3cccc(Cl)c3)c(C(=O)OC)s2)cc1 -2.32%
CNC(=O)C(=O)NCC(c1ccc2c(c1)OCO2)N1CCOCC1 (centres undefined) -8.73%
Cc1cc(C)cc(NC(=O)CSc2nc3c([nH]c4ccccc43)c(=O)n2-c2ccc(F)cc2)c1 87.3%
O=C(c1ccc(F)cc1F)N1CCC(c2nc(-c3ccc(S(=O)(=O)N4CCCC4)cc3)no2)CC1 36.1%
COc1ccc(CNC(=O)C2=C(C)C(=O)OC23CCCCC3)cc1OC -6.71%
CC1=C(C(=O)Nc2ccccc2)C(c2ccc(C)cc2)n2nc(SCc3ccccc3C)nc2N1 (centres undefined) 31.2%
Cc1oc2cc3oc(=O)c(CC(=O)N4CCCCC4)c(C)c3cc2c1C -13.3%
CCOC(=O)c1ccc(NC(=O)c2cn(-c3ccccc3)nc2-c2ccc(C)cc2)cc1 9.72%
CCc1nnc2c(N3CCN(c4cccc(C(F)(F)F)c4)CC3)nc3ccccc3n12 3.5%
COc1ccc(CNC(=O)Cn2c(=O)c3cccn3c3ccccc32)cc1 1.02%
CSc1nc(-c2ccccc2Cl)nc2c1Cc1c(CO)cnc(C)c1O2 -3.28%
O=C(Nc1c(C(=O)N2CCN(c3ccccc3F)CC2)oc2ccccc12)c1ccco1 -3.96%
CNc1ccc(-c2nc(-c3ccccc3C)no2)cc1[N+](=O)[O-] 0.523%
O=C(Cn1c(=O)n(Cc2ccco2)c(=O)c2oc3ccccc3c21)Nc1ccc(F)c(Cl)c1 -4.88%
COc1cccc(CNc2ncnc3onc(C)c23)c1 -1.7%
COc1ccc(OC)c(CN2CCN(S(=O)(=O)c3ccccc3)CC2)c1 6.39%
Cc1ccccc1NC(=O)c1cn(-c2ccccc2)nc1-c1ccccc1 -14.4%
CCc1cc(-c2n[nH]c(C)c2-c2ccc3c(c2)OCCO3)c(O)cc1O 32.3%
CCOc1cc(C2C(C(=O)OC)=C(C)NC3=C2C(=O)c2ccccc23)ccc1OC (centres undefined) -0.419%
Cc1ccc(S(=O)(=O)c2cnc(SCC(=O)Nc3ccc4c(c3)OCCO4)[nH]c2=O)cc1Cl 8.01%
CCOc1ccc(NC(=O)c2sc3nc4c(c(-c5ccccc5)c3c2N)C(=O)CC(C)(C)C4)cc1 -4.69%
CCOC(=O)c1c(NC(=O)CSc2cn(CCNC(=O)c3cccc(C(F)(F)F)c3)c3ccccc23)sc2c1CCC2 19.3%
Cc1ccc2oc(C(=O)N(Cc3ccc(N(C)C)cc3)CC3CCCO3)c(C)c2c1 (centres undefined) -5.21%
O=C(Nc1ccc(Br)cc1)c1cc(-c2cccs2)nc2ccccc12 -16%
CC1CCC(N2CC(=O)N(C3CCCCC3)C(c3ccc(Cl)cc3)C2=O)CC1 (centres undefined) 40.4%
COc1cccc(C(=O)Nc2nc3ccc(S(=O)(=O)N4CCCC4)cc3s2)c1 -35.5%
CC(NC(=O)C1CCN(S(=O)(=O)c2ccc(F)cc2)CC1)c1ccccc1 (centres undefined) -7.65%
CN1CCC(=C2c3ccccc3CCc3sccc32)CC1 3.82%
O=C(Cn1ncc2c3ccccc3n(Cc3ccc(Cl)cc3)c2c1=O)NCCC1=CCCCC1 30.6%
CN(C)CCNC(=O)C1CCN(c2ncnc3c2nc2n3CCCCC2)CC1 2.04%
Cc1ccc(NS(=O)(=O)c2ccc(-c3cnc(C4CC4)o3)cc2)cc1N(C)C 3.28%
CC(C)Oc1ccc(C(=O)N2CCC(c3nc4ccccc4o3)CC2)cc1 -14.4%
COc1ccc(-c2cc(C(=O)Oc3ccc(C)cc3)c3ccccc3n2)cc1 -2.82%
Cc1nc(-c2cccc(F)c2)sc1CCNC(=O)c1c(F)cccc1Cl -6.56%
Cc1ccc(NC(=O)CSc2nnc(-c3nnn(-c4ccc(F)cc4)c3C)o2)cc1Br 7.07%
O=C(Cc1ccccc1)Nc1c(C(=O)c2ccccc2)oc2ccccc12 -6.2%
CCc1ccc(C(=O)COC(=O)C(Cc2c[nH]c3ccccc23)NC(=O)c2ccc(CC)cc2)cc1 (centres undefined) -7.72%
Cc1ccc(OCC(=O)Nc2nonc2-c2ccc(C)c(C)c2)cc1C 1.59%
COC(=O)Nc1nc2ccc(C(=O)c3ccc(F)cc3)cc2[nH]1 -13.9%
CCCCn1c(=NC(=O)C(C)(C)Oc2ccc(Cl)cc2)c(C(=O)OCC)cc2c(=O)n3ccccc3nc21 -34.5%
COc1cccc(N2CCN(C(=O)c3cc4c(s3)-c3c(C)cccc3OC4)CC2)c1 -14%
Cc1ccc(C)c(CNC(=O)c2ccc3c(c2)nc2n3CCOC2)c1 -12.7%
COc1ccccc1C(=O)Nc1cccc(C(=O)OCc2cc(=O)n3nc(C4CC4)sc3n2)c1 0.665%
O=C(Nc1ccc(OC(F)(F)F)cc1)C(Cc1ccccc1)NS(=O)(=O)c1cccc2nsnc12 (centres undefined) -8.08%
COc1ncc(-c2ccc3nccc(-c4ccnnc4)c3c2)cc1NS(=O)(=O)c1ccc(F)cc1F 4.37%
CCOC(=O)c1c(Nc2ccc(O)cc2)nnc(-c2ccccc2)c1-c1ccccc1 -8.96%
Cc1ccc(S(=O)(=O)c2nnn3c2nc(NCc2ccc4c(c2)OCO4)c2sccc23)cc1 21.1%
COC(=O)c1ccc(C2c3c(oc4ccc(C)cc4c3=O)C(=O)N2Cc2ccc3c(c2)OCO3)cc1 (centres undefined) 6.61%
Cc1ccc(-c2nnc(Nc3ccc(C(N)=O)cc3)c3ccccc23)cc1S(N)(=O)=O -0.757%
O=C(Nc1ccc(-c2nc3ccccc3o2)c(O)c1)c1ccccc1 -0.336%
COc1ccc(NC(=O)Cn2c(=O)c3cccn3c3ccccc32)cc1Cl -6.42%
CC(C)CN(C[C@H](O)[C@H](Cc1ccccc1)NC(=O)O[C@H]1CCOC1)S(=O)(=O)c1ccc(N)cc1 -5.86%
Cc1cc(C)cc(NC(=O)c2ccc3oc(=O)c(S(=O)(=O)c4ccc(F)cc4)cc3c2)c1 -3.76%
COc1ccc(N2CCN(C(=O)C3CCN(S(=O)(=O)c4cccc5nonc45)CC3)CC2)cc1 3.18%
CCOc1ccccc1OCCCCn1c(-c2ccc(Cl)cc2)nc2ccccc2c1=O -15.2%
Cc1nnc(N2CCCC(C(=O)NCCN(C)C)C2)c2nn(-c3ccccc3)c(C)c12 (centres undefined) 1.95%
CCOc1ccc(CNCc2c(C(=O)O)c(C)n(Cc3ccc(C)cc3)c2C)cc1 8.52%
Cc1sc(-c2cc3ccccc3oc2=O)nc1-c1ccc(Cl)c(Cl)c1 -1.18%
COc1ccc(-c2nc3sc(CCNC(=O)Cc4ccc(F)cc4)c(C)n3n2)cc1 -11.2%
COc1ccc(C)cc1NC(=O)Nc1cc(C(=O)NCc2ccc(C)cc2)ccc1N1CCCC1 -3.09%
CCC(Sc1nc(-c2ccccc2)[nH]c1S(=O)(=O)c1ccc(C)cc1)C(=O)O (centres undefined) -4.23%
Cc1ccc(-n2ncc3c(N(C)C)ncnc32)cc1Cl -4.69%

outcome, inactive:
Cc1ccc(OCCCCn2cnc3ccccc32)cc1
COc1ccc(CNC(=O)C(CCSC)NS(=O)(=O)c2ccc3c(c2)oc(=O)n3C)cc1 (centres undefined)
CS(=O)(=O)c1ccccc1-c1nnc(NC(=O)c2ccc3c(c2)OCCO3)o1
CCCOc1ccc(C(=O)Nc2nonc2-c2ccc(OCC)cc2)cc1
CCCc1ccc(S(=O)(=O)N2CCC(c3nnnn3-c3ccc(OC)cc3)CC2)cc1
CCCOc1ccc(CNC(=O)c2oc3ccc4c(c3c2C)C(=O)CC(C)(CC)O4)cc1 (centres undefined)
CCOc1cc(C#N)c(NC(=O)c2ccc(OC)c(S(=O)(=O)N3CCN(c4ccccc4)CC3)c2)cc1OCC
CN1CCN(CCCNC(=O)c2cnn(-c3ccc(F)cc3)c2-n2cccc2)CC1
COc1ccc(N(CC(=O)N2CCc3ccccc3C2)S(=O)(=O)c2ccc(C)cc2)cc1Cl
O=S(=O)(NCC(c1ccco1)N1CCOCC1)c1ccc(Br)cc1 (centres undefined)
CCCn1c2ccccc2c2cnn(CC(=O)NCCCN3CCCCC3)c(=O)c21
O=C(NCCc1ccccc1)c1ccc2nc(N3CCCCC3)sc2c1
CCOc1ccccc1CNC(=O)CCc1c(C)nn(-c2ccc(N3CCCCC3)nn2)c1C
O=C1CSC2(C(=O)N(Cc3ccccc3F)c3ccccc32)N1c1cccc(C(F)(F)F)c1 (centres undefined)
CC(C)c1ccc(NC(=O)CSC2=Nc3ccccc3C3=NC(CC(=O)NCc4cccs4)C(=O)N23)cc1 (centres undefined)
COc1cc(NC(=O)CSc2ncc3c(n2)-c2ccc(Cl)cc2N(Cc2ccccc2)S3(=O)=O)cc(OC)c1
COc1ccc(CNC(=O)c2cc3cc4ccc(C)cc4nc3o2)cc1
Cc1ccc(NC(=O)CN2C(=O)COc3ccc(S(=O)(=O)N4CCCCCC4)cc32)cc1Cl
CC(C)Cc1nn2c(=O)cc(COC(=O)CNC(=O)c3ccc(C(C)(C)C)cc3)nc2s1
COc1cccc(CNC(=O)Cn2ccc3cc(S(=O)(=O)N4CCCC4)ccc32)c1OC
CCOC(=O)c1noc2ncnc(Nc3cc(Cl)c(OC)cc3OC)c12
COc1cccc2sc(NC(=O)c3ccc(S(=O)(=O)N4CCC(C)CC4)cc3)nc12
CCN1CCN(CCCNC(=O)CS(=O)(=O)Cc2nc(-c3ccccc3C)oc2C)CC1
